Source: ChEMBL document CHEMBL4888484, “Replenishing the malaria drug discovery pipeline: Screening and hit evaluation of the MMV Hit Generation Library 1 (HGL1) against asexual blood stage Plasmodium falciparum ,using a nano luciferase reporter read-out” (2022)
In all, about 150,000 compounds went through this assay and about 540 (0.36%) showed an effect of 50% or more. Some of the results follow.

Each compound was assayed on Plasmodium falciparum (assay: Primary screen in NF54 nanoGlo assay, in single point, at 2uM, 72h; a lower Z score goes with more inhibition). Settings: timepoint 72 hour.
Type: functional, Erythrocyte

SMILES	% Inhibition [%]	Z score
CCN(C(=O)C(C)C)[C@H](c1ccc(C)cc1)c1c[nH]c2ccccc12	15	-2.26
COC[C@H]1[C@@H](NC(=O)c2cc(C)oc2C)[C@H]2CCO[C@H]21	-13	1.19
Cc1noc(-c2cccnc2NC[C@H](O)CO)n1	-8	0.89
CCOc1ccc(S(=O)(=O)Nc2ccc3c(c2)C(=O)NCCO3)cc1	-15	1.74
CN1CCN(c2cc(C3=CCCCC3)nc(N)n2)CC1	-4	0.62
Cc1ncc2ccc(C(=O)N[C@H]3CCCc4cnn(C(C)C)c43)cn12	3	-0.32
Cc1nc(NCC[C@H]2CCCOC2)c2ccccc2n1	-7	0.68
Cc1ccc(CNC(=O)[C@@H]2CCCCC(=O)N2C)cc1	-23	2.67
CC1CCC2C(CCC(C)N2C(=O)c2cc3nc4c(c(C(F)(F)F)n3n2)CCc2ccccc2-4)C1 (configuration not stated)	30	-0.09
Oc1cccc(CNCC2(c3ccccc3)CC2)c1	3	-0.28
O=C(CCCc1ncc(-c2ccccc2)o1)NCc1cccnc1N1CCOCC1	-18	3.44
Cc1cc(CN2CCCS2(=O)=O)no1	2	-0.39
O=C(CN1CCCN(C2CC2)CC1)Nc1ccc(C(F)(F)F)cc1	-7	1.01
CCCOCc1nc([C@H]2C[C@@H](c3ccccc3)N3CCC[C@H]23)no1	2	-0.35
C[C@H](NC(=O)N(C)Cc1noc(C2CCC2)n1)c1ccccc1	-13	1.68
Cc1cc(=O)cc(C(=O)N2CCC(F)(F)CC2)[nH]1	-4	0.88
COc1cc(C(=O)NC[C@@]2(c3cnn(C)c3)CCCO2)ccc1F	-11	1.09
COC(=O)C1CCCCCC1NS(=O)(=O)N(C)C(C)C (configuration not stated)	-7	0.76
C=CCN(CC(=O)O)C(=O)c1ccc(Cl)c(C)c1	-9	0.91

SMILES	% Inhibition [%]	Z score
c1ccc(-c2csc(CN3CCC[C@H]3c3nc(C4CC4)no3)n2)cc1	5	-0.71
O[C@H]1CCCN(Cc2cc3ccc(F)cc3nc2-c2cccc(Cl)c2)C1	-10	1.4
Cc1n[nH]c2c1CN(S(=O)(=O)c1ccc(-c3c(C)noc3C)s1)CC2	-11	1.35
CN1C(=O)[C@@]2(NC(=O)c3cnn(-c4ccccc4)c3N2)c2ccccc21	-8	1.1
CCn1cnnc1-c1nn(C)c2c1CN(C(=O)c1ccc(C)nc1)CC2	-7	1.34
Cc1cc2n(n1)[C@@H](c1cn(-c3ccccc3)nc1-c1ccccc1)Nc1c(C)cccc1-2	22	-3.42
O=C(N[C@@H](CCO)C1CCCCC1)C(F)(F)C1(O)CCCCC1	-34	3.99
CCCN(CCC)C(=O)c1ccc(C)n1C	-14	2
CC(=O)N[C@@H]1CN(C(=O)Cc2cccc3ccccc23)C[C@H]1CO	-23	3.96
Cc1ccsc1-c1nnc(CC(=O)N2CCN(c3ccccc3)CC2)o1	3	-0.33
CCc1nnc(NC(=O)N2CCO[C@@](C)(CC)C2)s1	8	-0.81
COc1cc(N2CC[S+]([O-])CC2)ncn1	-5	0.92
O=C1CCC2(CCN(C/C=C/c3ccccc3)CC2)CN1[C@H]1CC[C@H](O)CC1	-1	0.11
Cc1ccc(CNC(=O)C(=O)Nc2nc3ccccc3s2)cn1	11	-1.56
Cc1ccc(Cn2c(=O)c3sccc3n(CC(=O)Nc3cc(Cl)cc(Cl)c3)c2=O)cc1C	33	-3.73
C[C@H](O)CNCc1cc2ccc(F)cc2n(Cc2ccccn2)c1=O	-4	0.52
Cc1cc(C)c(CN[C@@H](C)CNS(=O)(=O)C2CC2)cn1	5	-0.45
COc1ccc2c(c1)N(Cc1cncnc1)C[C@H](C)O2	-12	1.94
CC(C)CN(C)[C@@H](C(=O)O)c1ccc(NC(=O)N2CCCC2)cc1	0	-0.07

SMILES	% Inhibition [%]	Z score
CCC[C@H](C)NC(=O)Nc1nccs1	-8	1.36
COc1ccc(C(=O)C[n+]2ccn(C)c2)cc1OC	-3	0.4
CC(NC(=O)c1ccoc1)C(=O)NOC1CCCCO1 (configuration not stated)	-23	3.95
Clc1ccc(CNCc2cccnc2-n2cccn2)s1	15	-1.72
CCCCNc1ccccc1C(=O)N[C@H]1C[C@@H](O)C1	0	0.02
CCc1cc(C)nc(N2Cc3c(N)nn(C)c3C2)n1	0	0.04
COc1cncc(COc2cccc(NC(=O)C(C)C)c2)n1	-6	0.99
C=C[C@H]1OCCC[C@@H]1NC(=O)N1CCCC(CCO)CC1 (some centres not stated)	7	-0.96
CCN(CC)C(=O)Cn1cc(C(=O)NCc2ccsc2)nn1	2	-0.19
O=S(=O)(CCN(C1CCCCCC1)S(=O)(=O)c1ccc(F)cc1)N1CCNCC1	-14	1.55
Cc1ccccc1CS(=O)(=O)NC(C(C)C)C(C)C	-12	1.65
CCN1CCC[C@@H]1CNS(=O)(=O)c1cc(-c2ccc(=O)n(-c3c(C)noc3C)n2)ccc1OC	29	-3.36
O=C(c1ccc(OC(F)F)cn1)N1CCC1	0	0.04
COCC(=O)N(CC(F)(F)F)c1ccc(Br)cc1	-11	1.63
C[C@H]1CN(C(=O)c2cnc(C(C)(C)C)s2)CC(C)(C)O1	-5	0.9
O=C(CCn1c(=O)[nH]c2ccsc2c1=O)NCc1ccccc1	59	-1.7
Nc1cncc(-c2ccc3c(c2)OCCO3)c1	-19	1.7
Cc1cc2c(c(C)n1)CC1C(=O)NC(=O)C1C2 (configuration not stated)	0	0
